Molecules are shown by their SMILES. Some of the results follow. Shown are side measurements of this screen, not its main read-out; they come without a call. Most of these compounds were active or inconclusive in the main read-out, so they are no random draw.

The nature of this experiment: inhibitors of hepatocyte lipid droplet formation, primary screen, imaging, high-throughput imaging, BODIPY stain (AID 1656).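 Also: cells counted across two imaged fields per well.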 Particulars: AML12 mouse hepatocytes, oleate lipid droplets, measured here: cell count, cytotoxicity flag, at 6.5 µM. An outline of the steps:
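Material – AML12 mouse liver cells · Also added – oleate loading, 100 µM · Compound dosing – 6.5 µM single-point dosing · Times – overnight treatment with compound plus oleate · Measured by – fluorescence imaging, 20x objective, two fields per well · Read-out – percent inhibition of filter-corrected integrated lipid droplet intensity per well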
The molecule `COc1cccc(CNS(=O)(=O)c2ccc(S(=O)(=O)NC3CC3)cc2)c1` displayed a cell count of 847 cells.

In the case of `CCCOC(=O)c1ccc(NC(=O)c2ccc(Br)o2)cc1`, the cell count is 654 cells. `CC1=Nc2cc(C(=O)NCc3ccco3)ccc2Sc2ccc(C)cc21` showed a cell count of 159 cells. As for `CC1=C([N+](=O)[O-])C(c2cccc(Br)c2)C2=C(N1)c1ccccc1C2=O` (configuration not stated), the figure is 245 cells. With `Cc1nc(NC(=O)/C=C/c2ccccc2)n[nH]1` the figure was 294 cells; with `C#CCOc1ccc(C2C3=C(COC3=O)Nc3cc4c(cc32)OCO4)cc1OC` (configuration not stated), 38 cells. As to `CCOc1ccccc1NC(=O)CC1Nc2cc(C)c(C)cc2NC1=O` (configuration not stated), the cell count is 715 cells. As for `Cc1ccc(/C=N/NC(=O)COc2ccccc2-c2ccccc2)cc1`, the figure is 281 cells; as for `CC(C)(C)C1CCC(=NNC(=O)c2ccc(Br)o2)CC1` (configuration not stated), 190 cells. With `C=CCSc1n[nH]c(-c2ccc(OCCCC)cc2)n1` the figure was 691 cells; with `Cc1cccc(Nc2nc(N)c([N+](=O)[O-])c(N3CCCC(C)C3)n2)c1` (configuration not stated), 638 cells. As for `CCCc1cc2c(=O)c(-c3ccc4c(c3)OCCO4)c(C)oc2cc1OS(C)(=O)=O`, the figure is 136 cells; as for `CCC(C)(C)NC(=O)C(c1ccc(OC)cc1)N(Cc1cccs1)C(=O)CCC(=O)Nc1cc(C)on1` (configuration not stated), 756 cells; as for `COc1ccc(C2(c3ccc(OC)cc3)NC(=O)N(CC(=O)Nc3cc(C)ccc3OC)C2=O)cc1`, 894 cells. As to `CCc1cc(SC#N)cc(CC)c1NC(=O)CCl`, the cell count amounted to 680 cells.

As for `CCOc1ccc(CCNC(=O)CCS(=O)(=O)c2ccc(Br)cc2)cc1OCC`, the cell count worked out at 410 cells. As for `COc1cccc(N=CC=C2OC(C)(C)C(C)(C)O2)c1`, the figure is 678 cells; as for `CC(C)C(C)(C#N)NC(=O)CSc1nc2scc(-c3ccc(F)cc3)c2c(=O)n1Cc1ccccc1` (configuration not stated), 608 cells; as for `CCOC(=O)C1C2C=CC3(CN(Cc4cccs4)C(=O)C13)O2` (configuration not stated), 223 cells.

Consider `CC(=O)c1cccc(N=Nc2c(-c3ccccc3)[nH]n(-c3ccccc3)c2=O)c1`, for which the cell count was determined as 673 cells. For the molecule `O=C(Nc1nc2ccccc2s1)c1ccc(OCC2CCCO2)cc1` (configuration not stated), the cell count came out at 580 cells.

The molecule `CCc1ccccc1NC(=O)COc1ccc(C(=S)N2CCCC2)cc1` yielded a cell count of 690 cells. Molecule `CCOc1ccc(CCNC(=O)c2cc3sccc3n2CC)cc1OCC` yielded a cell count of 790 cells. `COc1ccccc1CNS(=O)(=O)c1ccc2c(c1)CC(C)N2C(=O)C1CC1` (configuration not stated) displayed a cell count of 694 cells. As for `CCCCCCNC(=O)c1cn(CC)c2cc(N3CCN(C)CC3)c(F)cc2c1=O`, the figure is 734 cells; as for `FC(F)Oc1ccc(-c2csc(NNC3=NCCCCC3)n2)cc1`, 620 cells. With `CCOC(=O)c1ccccc1NC(=O)Cn1c(-c2nonc2N)nc2ccccc21` the figure was 252 cells; with `c1cc2c3c(cccc3c1)NC1(CCC3(CC1)Nc1cccc4cccc(c14)N3)N2`, 762 cells.

`COc1ccc2c(c1)-c1c(ssc1=S)C(C)(C)N2S(=O)(=O)c1ccc(C)cc1` gave a cell count of 551 cells. With `Cc1ccccc1OCC(=O)NCCCNC(=O)c1ccccn1` the figure was 709 cells. With `COc1ccc(CCn2ccc(O)c(Cc3ccc(Cl)cc3)c2=O)cc1OC` the figure was 693 cells; with `Cc1cc(=O)oc2cc(OCC(=O)NCCCN3CCCC3=O)ccc12`, 642 cells. With `c1cc2c(cc1-c1csc(NNC3=NCCCCC3)n1)OCCO2` the figure was 689 cells; with `CCOC(=O)c1ccc(NC(=O)CSc2nc3c(c(=O)n2-c2ccccc2OC)SCC3)cc1`, 648 cells. The molecule `CCn1c2ccccc2c2cc(Nc3cc(C)nc4ncnn34)ccc21` showed a cell count of 268 cells. With `O=C(NCc1cccs1)C1CCC(CNS(=O)(=O)c2cccs2)CC1` (configuration not stated) the figure was 768 cells; with `COc1ccc(C(=O)NC2CCCc3c2cnn3-c2cccc(C)c2C)o1` (configuration not stated), 692 cells. With `COc1ccc(NC(=O)C(=O)c2cn(CC(=O)N3CCCC3)c3ccccc23)cc1` the figure was 223 cells.

`Cc1nn(-c2ccccc2)c(N2CCCC2)c1/C=N/Nc1ccc(S(=O)(=O)Nc2ccccc2)cc1[N+](=O)[O-]` had a cell count of 664 cells. `CCCCOc1ccc(Br)cc1/C(C)=N/NC1=NCCN1`: the cell count is 243 cells. As for `COc1ccccc1Nc1ccc(NC(=O)c2cccc([N+](=O)[O-])c2C)cc1`, the figure is 843 cells; as for `COc1ccc(C)cc1S(=O)(=O)N(CC(=O)Nc1cc([N+](=O)[O-])ccc1C)c1ccc(C)c(C)c1`, 678 cells; as for `COc1ccc(CCNC(=O)C2CC3Cn4c(nc5cc6ccccc6cc54)C3N2C)cc1` (configuration not stated), 765 cells. With `CCc1cc(SC#N)cc(C)c1NC(=O)CCl` the figure was 623 cells. With `O=C(CCl)N=c1sccn1Cc1ccc(Cl)cc1Cl` the figure was 215 cells; with `C=CCN1C(=O)/C(=C\C=C2\N(C)c3ccccc3C2(C)C)SC1=S`, 690 cells; with `COc1ccc(C2(c3ccc(OC)cc3)NC(=O)N(CC(=O)Nc3ccc(OC)c(OC)c3)C2=O)cc1`, 807 cells. As to `Cc1ccc(NC(=O)CSc2nnc(C)c(=O)n2N)cc1Cl`, the cell count stood at 725 cells.

The molecule `COc1ccc(NC(=O)CCC(=O)Nc2cc(OC)c(NC(=O)c3cccs3)cc2OC)cc1` gave a cell count of 699 cells. As for `FC(F)(F)c1ccc(Cl)c(NC(=S)N/N=C/c2ccccc2C(F)(F)F)c1`, the figure is 666 cells; as for `C=CCNC(=S)Nc1cc(S(=O)(=O)N2CCOCC2)ccc1-n1cncn1`, 591 cells; as for `Cc1ccc(N(C)S(=O)(=O)c2ccc(-c3cnc(C4CC4)o3)cc2)cc1`, 211 cells.

Consider `COc1cc(C2C(C#N)=C(C)NC3=C2C(=O)c2ccccc23)cc(OC)c1OC` (configuration not stated), for which the cell count amounted to 284 cells. With `COc1ccc(CCNC(=O)c2cc(-c3ccccc3)c(N3CCOCC3)s2)c(OC)c1OC` the figure was 757 cells. As for `CC1CCCCN1Cc1ccc(N)cc1` (configuration not stated), the figure is 164 cells; as for `COc1c(C)cc(Br)cc1C(=O)Nc1cccc(NC(=O)c2ccco2)c1`, 717 cells; as for `Cc1ccc(NC(=O)Cc2ccc3c(c2)CCCC3)cc1C`, 487 cells.

As for `Cc1ccc(CCC(=O)Nc2ncc(Cc3cccc(Cl)c3Cl)s2)o1`, the cell count turned out to be 33 cells. With `O=C(N/N=C/C(Br)=C/c1ccccc1)c1n[nH]c2c1CCC2` the figure was 147 cells. On to `CCOc1ccccc1/C=C(/NC(=O)c1ccccc1)C(=O)NCC(=O)O`, for which the cell count worked out at 503 cells. As for `COc1cc(NC(=O)c2oc3ccccc3c2C)ccc1NC(=O)c1ccco1`, the figure is 780 cells.

For `COc1ccc(/C=C(\NC(=O)c2cccs2)C(=O)Nc2cccc3ccccc23)cc1OC`, the cell count is 622 cells. As for `Cn1c(=O)c(=O)n(C)c2cc(N3CCCC3)c(NS(=O)(=O)c3ccc(Cl)cc3)cc21`, the figure is 669 cells. With `CCOc1ccc(CCNC(=O)Cn2nc(C)c3c(C)n(-c4ccccc4)nc3c2=O)cc1OCC` the figure was 722 cells. Regarding `CC(C)(C)C(=O)Nc1nc2c(s1)COc1ccccc1-2`, the cell count turned out to be 635 cells. With `CC1CC(C)CN(C(=O)CSCC(=O)Nc2nc(-c3cccs3)cs2)C1` (configuration not stated) the figure was 598 cells. Consider `Cc1ccc(-c2nnc(OCc3cccnc3)c3ccccc23)cc1`, for which the cell count came to 651 cells. Regarding `O=S1(=O)N=C(Oc2cccc3ccccc23)c2ccccc21`, the cell count came out at 734 cells. As for `COc1ccc(C(C(=O)NC(C)(C)C)N(CC2CCCO2)C(=O)CCC(=O)Nc2cc(C)on2)cc1` (configuration not stated), the figure is 769 cells. Molecule `CCn1c(=O)n(CC)c2cc(N)ccc21` gave a cell count of 760 cells. With `CCOC(=O)n1cc(-c2cnc(CNC(=O)C(C)(c3ccccc3)c3ccccc3)o2)c2ccccc21` the figure was 704 cells; with `COc1cccc(-c2cc(C(=O)Nc3ccc([N+](=O)[O-])cn3)c3ccccc3n2)c1`, 635 cells; with `CCOc1ccc(C2=Nc3ccc(Br)cc3C(c3ccc(N4CCOCC4)cc3)=NN2)cc1`, 669 cells.

On to `CCOc1ccc(CCNC(=O)CN2C(=O)c3cccnc3Oc3ccc(C)cc32)cc1OCC`, for which the cell count amounted to 869 cells. The molecule `COc1ccc(NC(=O)[C@H](C)NC(=O)[C@@H]2Cc3ccccc3CN2C(=O)OC(C)(C)C)cc1` came in with a cell count of 701 cells. Molecule `CS(=O)(=O)N(CC(=O)Nc1ccccc1Br)Cc1ccccc1` gave a cell count of 791 cells.

In turn, `COc1ccc(CCNC(=O)c2ccc(CNc3nc(=S)[nH]c4ccccc34)cc2)cc1OC` yielded a cell count of 681 cells. With `CCCCOc1ccccc1C(=O)N(Cc1ccc(C)o1)C1CCS(=O)(=O)C1` (configuration not stated) the figure was 683 cells; with `Cc1ccc(C2=NC3(CCCCC3)N=C2SCC(=O)Nc2ccc3c(c2)OCCO3)cc1`, 720 cells; with `N#CC1=C(N)OC2=C(CCc3ccccc32)C1c1ccccc1Cl` (configuration not stated), 218 cells. With `CCCC(=O)Nc1cccc(C(=O)Nc2ccccc2OCC)c1` the figure was 736 cells; with `Nc1cc2c3c(cccc3c1)C(=O)N(CCN1CCCC1)C2=O`, 298 cells; with `CCOc1ccc(NC(=O)CSc2nc3ccccc3nc2N2CCCC2)cc1`, 806 cells. With `CC(Sc1nnc(Nc2ccccc2)s1)C(=O)Nc1nc(-c2ccccc2)cs1` (configuration not stated) the figure was 675 cells. In turn, `CSc1nc(N(C)NC(=O)c2ccccc2)c2ccccc2n1` returned a cell count of 189 cells.

In the case of `COc1ccc2c(c1)c(CC(=O)Nc1ccccc1OC)c(C)n2C(=O)c1ccc(Cl)cc1`, the cell count turned out to be 644 cells.

Molecule `COc1ccccc1N=C(C)C1=C(O)CC(c2ccccc2)CC1=O` (configuration not stated) returned a cell count of 153 cells.

Turning to `O=C(NC1=C(Nc2ccc(F)cc2)C(=O)c2ccccc2C1=O)c1ccc(Cl)cc1`, the cell count was 273 cells. As for `COC(=O)Cn1c(=NC(=O)c2sc3ccccc3c2Cl)sc2cc(S(N)(=O)=O)ccc21`, the figure is 290 cells; as for `CCOC(=O)c1cc(-c2ccc(F)cc2)n(CC(=O)NC(C)CC)c1C` (configuration not stated), 749 cells. `O=C(c1ccc(S(=O)(=O)Nc2cccc(C(F)(F)F)c2)cc1)N1CCOCC1`: the cell count is 792 cells. In the case of `CCCOc1ccc(C(=O)OCC(=O)NCCc2ccc(OCC)c(OCC)c2)cc1OC`, the cell count was 697 cells. In the case of `CCOC(=O)C1=NN(c2ccccc2)C2=NC(C)=C(C(=O)OC)C(c3ccc(C)cc3)N12` (configuration not stated), the cell count is 289 cells. With `CCOc1ccc(CCNC(=O)CCC(=O)N2CCOc3ccccc32)cc1OCC` the figure was 761 cells. As for `CCCCOc1ccc(/C=C/C(=O)OCC(=O)c2c(N)n(C)c(=O)n(C)c2=O)cc1OCC`, the figure is 670 cells; as for `CCc1ccc(NC(=O)CNC(=O)[C@@H]2Cc3ccccc3CN2C(=O)OC(C)(C)C)cc1`, 656 cells. With `O=C(/C=C/c1cccs1)Nc1ccc(Br)cn1` the figure was 237 cells; with `COc1cc(C2=NOC(C(=O)NCc3ccc(F)cc3)C2)cc(OC)c1OC` (configuration not stated), 296 cells.

As to `O=C(NC1CCCCC1)C(c1cccnc1)N(C(=O)CCl)c1ccc(F)cc1` (configuration not stated), the cell count was 36 cells. Consider `COc1cc2ncnc(NCc3cccs3)c2cc1OC`, for which the cell count amounted to 500 cells. As for `Cc1cc(C(=O)CN2C(=O)c3ccccc3S2(=O)=O)c(C)n1-c1ccccc1`, the figure is 823 cells. With `Cc1ccc(N2C(=O)c3ccccc3NC2(C(=O)O)c2ccccc2)cc1Cl` (configuration not stated) the figure was 852 cells.

Values taken from PubChem BioAssay AID1656 (Sanford-Burnham Center for Chemical Genomics, 2009).
